Measurements as given in PubChem BioAssay AID686978 (National Center for Advancing Translational Sciences (NCATS), 2013).
Several values for one entry are separate records, joined by “and”; a condition that tells them apart may be missing. Equal values may be shown once. About 64,000 (15%) of roughly 420,000 compounds were called active. The inconclusive results got no clear call from the source; some entries with a clear call stand among them for comparison. Calls come from the whole dose curve; as a rule, active = well fitted inhibition curve with a large enough effect; inconclusive = small, poorly fitted or top-dose-only effect; inactive = flat fitted curve, though single readings scatter. Where the call is inconclusive, the potency comes from a doubtful curve fit.

experiment: qHTS for Inhibitors of human tyrosyl-DNA phosphodiesterase 1 (TDP1): qHTS in cells in absence of CPT; conditions: DT40 Tdp1-/- hTDP1 cells, no CPT, ATP luminescence, 48 h; activity change, negative = growth inhibition: at 46.2 µM (top of the series) unless noted; note: nearly all actives have a fitted effect of over 55% in size
How it was run: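 Compound effects on proliferation are scored in DT40 Tdp1-/-;hTDP1 cells in the absence of CPT. ATP levels (CellTiter-Glo luminescence) are recorded after a ≥48 hr, 37 °C incubation.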
% is set by controls: 0 for no effect and ±100 for the full control effect; potency is the fitted concentration of half-maximal effect; tags give direction and shape of the fitted curve.

Row | SMILES | Potency | activity change, negative = growth inhibition
1 | CCOc1ccc(S(=O)(=O)N2CCN(C(=S)NCc3ccco3)CC2)cc1 | inconclusive: 20.6 µM [inhibitor, single point] | –
2 | CCOC(=O)C1=CCC2C(=O)N(CC)C(=O)C12 (centres undefined) | inactive | –
3 | CN(C)CCN(CC1CCCN(Cc2ccccc2F)C1)C(=O)c1ccc(Cl)cc1 (centres undefined) | inconclusive: 25.9 µM [inhibitor, single point] | –
4 | CCCCn1c(N)c(N(Cc2ccccc2OC)C(=O)CCSC)c(=O)[nH]c1=O | inactive | –
5 | Cc1c(C#N)c(N)nc(Cl)c1C#N | inconclusive: 29.1 µM [inhibitor, single point] | –
6 | Cc1cc(C(C)(C)C)cc(CN2CCN(S(=O)(=O)c3cccs3)CC2)c1O | active: 0.184 µM | –
7 | O=C(Nc1ccccc1)c1cccc(S(=O)(=O)Oc2ccc([N+](=O)[O-])cc2)c1 | inconclusive: 29.1 µM [inhibitor, single point] | –
8 | COc1ccc2cc(C(=O)N3CCN(c4cccc(C)c4C)CC3)[nH]c2c1 | inconclusive: 20.6 µM [inhibitor, single point] | –
9 | CN(C)c1ccc(/C=C/c2ccnc3ccccc23)cc1C=O | active: 10 µM | –
10 | CCC1=Nc2cc(C(=O)NCc3ccccc3OC)ccc2Sc2ccc(Cl)cc21 | inconclusive: 29.1 µM [inhibitor, single point] | –
11 | Cc1c(CC(=O)N2CCCCC2)c(=O)oc2cc3occ(C(C)(C)C)c3cc12 | inconclusive: 7.31 µM [inhibitor, partial curve] | –
12 | COC1[C@@H](O[C@@H]2O[C@H](C)[C@@H](O[C@H]3C[C@@](C)(O)[C@H](OC(=O)CC(C)C)[C@H](C)O3)[C@H](N(C)C)[C@H]2O)[C@@H](CC=O)C[C@@H](C)[C@@H](O)/C=C/C=C/C[C@@H](C)OC(=O)C[C@H]1OC(C)=O (some centres undefined) | inconclusive: 12.8 µM [inhibitor, single point] | –
13 | COc1ccc(-c2cn3cccnc3n2)cc1NC(=O)COc1ccccc1 | active: 13 µM | –
14 | CC(=O)NCC12CC3CC(C1)CC(C(=O)O)(C3)C2 | inconclusive: 5.62 µM [inhibitor, single point] | –
15 | CCCCCCCOc1ccc(C2CC(=O)N(C)C2=O)cc1 (centres undefined) | inconclusive: 29.1 µM [inhibitor, single point] | –
16 | Cn1ccc2c(-c3cccc(C=O)c3)cc3c(c21)C1CCC3C1 (centres undefined) | inconclusive: 18.4 µM [inhibitor, single point] | –
17 | Cc1cc(C(=O)N/N=C/c2cccnc2)c2ccccc2n1 | inconclusive: 16.4 µM [inhibitor, single point] | –
18 | O=c1cc2ncc(-n3cc([N+](=O)[O-])cn3)cn2[nH]1 | inactive | –
19 | COc1ccccc1N1CCN(C(=O)CN2C(=O)c3ccccc3C2=O)CC1 | – | inconclusive: -33.7% [inhibitor]
20 | COCCNc1ncnc2c1cnn2-c1cc(Cl)ccc1C | inconclusive: 10.3 µM [inhibitor, partial curve] | –
21 | CCOC(=O)N1CCN(c2nc(-c3cccs3)nc3ccccc23)CC1 | active: 14.6 µM | –
22 | CCCCn1c(=O)[nH]c(=O)c2c1nc(-c1ccc(-c3ccc(F)cc3)o1)n2C | inconclusive: 29.1 µM [inhibitor, single point] | –

Row | SMILES | Potency | activity change, negative = growth inhibition
23 | O=C(CC1(O)C(=O)Nc2ccc(Br)cc21)c1ccc2c(c1)OCO2 (centres undefined) | inconclusive: 23.1 µM [inhibitor, single point] | –
24 | O=CNc1c(Cl)cc2c(c1Cl)Cc1cc([N+](=O)[O-])ccc1-2 | active: 11.6 µM | –
25 | COc1cccc(-c2csc(NC(=O)Nc3ccccc3)n2)c1 | active: 2.31 µM | –
26 | Cc1cc(=S)cc(C)n1CCCO | inactive | –
27 | CNc1ncnc2c1ncn2[C@H]1CN(C2CCCC2)C[C@@H](CO)O1 | inactive | –
28 | C=C1[C@@H]2CC[C@@H](C2)C1(C)C | inactive | –
29 | CC(C)Oc1ccc(C(=O)Nc2ccc(NC(=O)c3ccco3)c(Cl)c2)cc1 | inconclusive: 32.6 µM [inhibitor, single point] | –
30 | Cc1ccc2[nH]c(CN3CCC(CO)(CC4CCCCO4)CC3)c(C)c2c1 (centres undefined) | inconclusive: 29.1 µM [inhibitor, single point] | –
31 | Cc1ccc(S(=O)(=O)C2(C(=O)Nc3ccc(C)c(Cl)c3)CC2)cc1 | inconclusive: 18.4 µM [inhibitor, single point] | –
32 | COC(=O)c1c(-c2ccc(SC)cc2)sc2ccccc12 | inconclusive: 29.1 µM [inhibitor, single point] | –
33 | CC(=O)NC(C)(c1ccccc1)c1nc(-c2cccc(F)c2)cs1 (centres undefined) | inconclusive: 23.1 µM [inhibitor, single point] | –
34 | COC(=O)c1ccc(NS(=O)(=O)c2cc(-c3cc(C)no3)ccc2OC)cc1 | active: 2.91 µM | –
35 | COC(=O)c1ccc2[nH]cc(CCO)c2c1 | inactive | –
36 | CN(CC(=O)Nc1cccc(F)c1)C(=O)c1cc(-c2ccccc2)nc2ccccc12 | inconclusive: 29.1 µM [inhibitor, single point] | –
37 | Cc1ccccc1OCCC(=O)OCC(=O)NNC(=O)c1cccs1 | inactive | –
38 | CC1(C(=O)Nc2cnc3ccccc3c2)CCN1CCOc1ccccc1 (centres undefined) | inconclusive: 29.1 µM [inhibitor, single point] | –
39 | COc1ccc(C(=O)NCC(C)NC(=O)c2ccc(OC)c(Br)c2)cc1Br (centres undefined) | inconclusive: 23.1 µM [inhibitor, single point] | –
40 | COc1ccc(N2CCN(CC(O)COc3ccc(C)cc3C)CC2)cc1 (centres undefined) | inconclusive: 23.1 µM [inhibitor, single point] and inconclusive: 29.1 µM [inhibitor, single point] | –
41 | Cc1nn(-c2ccccc2)c(C)c1NC(=O)COC(=O)CC(C)c1ccccc1 (centres undefined) | – | inconclusive: -37.5% [inhibitor]
42 | O=S(=O)(Nc1ccc(Br)cc1)c1cccc2cccnc12 | – | inconclusive: -34.3% [inhibitor]
43 | CC(CCc1ccccc1)NC(=O)c1nnc(Cc2ccc(F)cc2)o1 (centres undefined) | inconclusive: 16.4 µM [inhibitor, single point] | –
44 | CCOC(=O)c1[nH]c(C)c(/C(O)=C2\C(=O)C(=O)N(CCN(C)C)C2c2ccc(C)o2)c1C (centres undefined) | inconclusive: 29.1 µM [inhibitor, single point] | –
